In paper PMC4336329 (PLoS ONE, 2015):
Hit rate of the full screen: of about 310,000 compounds, about 14,000 (4.5%) showed an effect of 50% or more. The effect is printed as a negative number. The list shows a part of the results.

Target: human ether-à-go-go-related gene (hERG) potassium channel (human, UniProt Q12809)
Assay: primary screen, population patch clamp on CHO cells stably expressing hERG
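Note: peak tail current of the secondary pulse compared with the same well before compound.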

Chain of human ether-à-go-go-related gene (hERG) potassium channel (Q12809 whole entry, looked up): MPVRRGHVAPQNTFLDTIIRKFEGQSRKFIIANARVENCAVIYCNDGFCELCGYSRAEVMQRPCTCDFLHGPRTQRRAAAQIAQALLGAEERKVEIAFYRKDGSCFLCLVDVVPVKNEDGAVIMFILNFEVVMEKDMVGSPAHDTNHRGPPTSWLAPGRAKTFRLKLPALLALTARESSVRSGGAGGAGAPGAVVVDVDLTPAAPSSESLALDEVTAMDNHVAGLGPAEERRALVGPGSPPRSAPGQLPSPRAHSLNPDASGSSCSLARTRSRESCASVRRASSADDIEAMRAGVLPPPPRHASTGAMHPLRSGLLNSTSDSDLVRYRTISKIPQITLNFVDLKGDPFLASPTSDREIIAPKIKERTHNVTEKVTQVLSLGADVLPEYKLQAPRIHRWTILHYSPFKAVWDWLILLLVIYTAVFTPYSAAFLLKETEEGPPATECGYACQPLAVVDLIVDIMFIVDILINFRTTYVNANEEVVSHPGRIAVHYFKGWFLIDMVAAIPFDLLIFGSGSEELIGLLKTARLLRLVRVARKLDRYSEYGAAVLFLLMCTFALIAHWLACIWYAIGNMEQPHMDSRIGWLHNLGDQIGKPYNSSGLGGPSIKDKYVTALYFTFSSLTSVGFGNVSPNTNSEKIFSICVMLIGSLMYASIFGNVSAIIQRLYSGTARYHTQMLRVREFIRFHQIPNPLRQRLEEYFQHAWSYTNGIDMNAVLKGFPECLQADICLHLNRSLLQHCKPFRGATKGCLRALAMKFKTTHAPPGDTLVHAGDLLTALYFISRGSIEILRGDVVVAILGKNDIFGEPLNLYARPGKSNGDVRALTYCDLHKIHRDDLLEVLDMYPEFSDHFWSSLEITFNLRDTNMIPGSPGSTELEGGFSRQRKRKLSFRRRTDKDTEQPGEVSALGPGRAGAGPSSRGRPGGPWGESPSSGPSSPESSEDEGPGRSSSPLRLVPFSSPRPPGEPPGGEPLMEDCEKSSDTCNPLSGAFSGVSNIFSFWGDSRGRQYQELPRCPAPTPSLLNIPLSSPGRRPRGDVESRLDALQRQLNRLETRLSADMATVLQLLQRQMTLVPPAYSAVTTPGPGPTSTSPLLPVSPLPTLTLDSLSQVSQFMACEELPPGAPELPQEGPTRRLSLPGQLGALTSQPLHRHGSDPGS

Row | Structure (SMILES) | hERG current change (%, negative = inhibition) at 10uM [%]
1 | Cc1onc(-c2c(F)cccc2Cl)c1C(=O)NCc1cccs1 | -21.2
2 | O=C(Cc1ccc(S(=O)(=O)N2CCOCC2)s1)Nc1ccccc1N1CCCC1 | 2.61
3 | Cc1c(-c2ccccc2)oc2c(C(=O)OCC(=O)Nc3ccc(C(N)=O)cc3)cccc2c1=O | 2.76
4 | O=C(/C=C/c1ccco1)NCCCN1CCN(CCCNC(=O)/C=C/c2ccco2)CC1 | -43.5
5 | COc1ccc(CCNC(=O)COC(=O)Cn2cnc3c2c(=O)n(C)c(=O)n3C)cc1 | 7.36
6 | COc1ccc(C(=O)CSc2nc3nc(C)cc(C)n3n2)cc1OC | -7.48
7 | CC(=O)NCCC(=O)Nc1cc(S(=O)(=O)Nc2ccc(Cl)cc2)ccc1N1CCCC1 | 13.4
8 | COc1ccc(C(=O)C2CCCN(Cc3ccsc3)C2)cc1OC (stereo not drawn) | -73.8
9 | NC(=O)c1cc2cc(Cl)ccc2oc1=Nc1cccc(C(F)(F)F)c1 | 21
10 | CCN1CCN(CC(=O)Nc2ccc3c(c2)OCCO3)C(=O)C1=O | 22.7
11 | O=C(COC(=O)c1ccccc1NC(=O)c1ccco1)NCCC1=CCCCC1 | -8.73
12 | Cc1noc(C)c1C(=O)OCC(=O)N(C)C1CCS(=O)(=O)C1 (stereo not drawn) | 19.8
13 | CCOc1ccc(-c2nnn(CC(=O)N3CCN(c4ccc(F)cc4)CC3)n2)cc1OCC | 11.4
14 | CC(=O)Nc1ccc(C(=O)N(C)C(C(=O)Nc2ccc(C)cc2)c2ccccn2)cc1 (stereo not drawn) | -7.71
15 | NC1=NC[C@H](Cc2ccc(O)cc2)N1CCCCC1CCCCC1 | -50.2
16 | C=CCn1c(C(c2ccccc2)c2ccccc2)n[nH]c1=S | 4.89
17 | COc1cccc(Nc2nc3ccccc3n3nnnc23)c1 | 22.1
18 | O=C(CNC(=S)NC(=O)C1CCCCC1)c1ccccc1 | 9.03
19 | COc1ccc(CC(NC(C)=O)C(=O)NC2CCN(C(=O)NCc3ccccc3)CC2)cc1 (stereo not drawn) | 6.59
20 | C#CC(C)(C)NC(=O)c1sccc1Oc1ccc(F)cc1[N+](=O)[O-] | 1.94
21 | COC(=O)c1nnn(-c2cc(Cl)cc(Cl)c2)c1C(=O)OC | 8.74
22 | COc1ccc(S(C)(=O)=O)cc1S(C)(=O)=O | 0.58
23 | Cc1cc(C)n(CCc2nc(-c3ccc(F)cc3)cs2)n1 | -16.7
24 | COc1ccccc1CNC(=O)CN1C(=O)COc2ccc(S(=O)(=O)N3CCCCC3)cc21 | 6.87
25 | Cc1ccc(NC(=O)c2cccc(C(=O)Nc3ccc(C)cc3C(=O)O)c2)c(C(=O)O)c1 | 20.1
26 | COc1cccc(NS(=O)(=O)c2c(C(=O)N3CCCCCC3)c(C)n(C)c2C)c1 | -6.52
27 | COC(=O)[C@@H](NC(=O)Nc1ccccc1F)C(C)C | 3.57

Row | Structure (SMILES) | hERG current change (%, negative = inhibition) at 10uM [%]
28 | Cc1cccc(CN2C(=O)c3ccccc3S(=O)(=O)c3ccc(C(=O)NCCCN4CCCC4)cc32)c1 | -5.34
29 | CCCCCCCCn1c(N2CCN(c3cccc(Cl)c3)CC2)nc2c1c(=O)[nH]c(=O)n2C | 5.65
30 | CCOC(=O)c1[nH]c(C)c(C(=O)NCc2ccc(Cl)cc2)c1C | 8.19
31 | CC1CCCN(C(=O)COC(=O)c2cc([N+](=O)[O-])ccc2N2CCOCC2)C1 (stereo not drawn) | -14.6
32 | COCCOC(=O)C1=C(N)Oc2c(oc(CO)cc2=O)C1c1c(F)cccc1Cl (stereo not drawn) | -3.93
33 | CCCCn1c(=O)c(C(=O)Nc2cccc(C)c2)c(O)c2ccccc21 | 19.3
34 | CCOC(=O)c1c(NC(=O)C2=C(C)NC(=S)NC2c2ccc(C)cc2)sc(C)c1C (stereo not drawn) | -1.14
35 | C/C(=N/NC(=O)c1ccco1)c1cccnc1 | 25
36 | CCCC(=O)Nc1ccc(C(=O)N2CCCC2)cc1 | -8.04
37 | O=C(O)CC(NC(=O)c1sc2ccccc2c1Cl)c1ccc(OC2CCCC2)cc1 (stereo not drawn) | -23.4
38 | COc1cccc(NC(=O)[C@H](Cc2c[nH]c3ccccc23)NC(=O)[C@@H]2Cc3ccccc3CN2)c1 | -18
39 | O=C(CCc1ccccc1)NCCCNC(=O)CCc1ccccc1 | 7.49
40 | O=C(CSc1nnc(COc2cccc3cccnc23)o1)c1ccc(F)cc1 | -5.86
41 | COc1ccccc1N1C(=O)NC(=O)/C(=C/c2ccc3c4c(cccc24)CC3)C1=O | 12.8
42 | COc1ccc(C)cc1NC(=O)C(OC(=O)CNC(=O)c1cc(C)cc(C)c1)c1ccccc1 (stereo not drawn) | 18.9
43 | CCCn1c(=S)[nH]c2cc(C(=O)NCC3CCCO3)ccc2c1=O (stereo not drawn) | 3.73
44 | C=CCN(c1nc(C)cc(OC)n1)S(=O)(=O)c1ccccc1 | -2.09
45 | Cc1cccc(CN2C[C@]34C=C[C@@H](C[C@@H]3S2(=O)=O)O4)c1 | 12.2
46 | O=C(c1ccc(F)cc1)N1CCN(c2ncccn2)CC1 | -1.2
47 | CCOC(=O)c1ccc(NC(=S)NCCCN2CCCC2=O)cc1 | -0.072
48 | O=C(CCc1ccc(O)cc1)c1c(O)cc(O)cc1O | 17.9
49 | O=C1NC(=O)C2(C(=O)N1)C(c1ccc(F)cc1)NC(=S)NC2c1ccc(F)cc1 (stereo not drawn) | 10.7
50 | Cc1ccc(NC(=O)C2CC(=O)N/C(=N/N=C/c3ccco3)S2)cc1 (stereo not drawn) | -8.45
51 | CN(C)C1=NC[C@H](Cc2ccccc2)N1CC1CCCCCC1 | -27.8
52 | COc1ccc(C(=O)CC(Nc2ccc([N+](=O)[O-])cc2)c2ccc(Cl)cc2)cc1 (stereo not drawn) | -8.37
53 | O=C(CN1C(=O)COc2ccccc21)NCCC1=CCCCC1 | -33.8
54 | O=C(CSc1nnc(CNC(=O)c2c(F)cccc2F)o1)NCC1CCCO1 (stereo not drawn) | 16
